Among all 310,000 compounds or so, about 14,000 (4.5%) showed an effect of 50% or more. Effects have a minus sign here. The list shows a part of the results.
Target: human ether-à-go-go-related gene (hERG) potassium channel (human, UniProt Q12809)
Assay: primary screen, population patch clamp on CHO cells stably expressing hERG
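Also: peak tail current of the secondary pulse compared with the same well before compound.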

Sequence of human ether-à-go-go-related gene (hERG) potassium channel (Q12809 whole entry, looked up): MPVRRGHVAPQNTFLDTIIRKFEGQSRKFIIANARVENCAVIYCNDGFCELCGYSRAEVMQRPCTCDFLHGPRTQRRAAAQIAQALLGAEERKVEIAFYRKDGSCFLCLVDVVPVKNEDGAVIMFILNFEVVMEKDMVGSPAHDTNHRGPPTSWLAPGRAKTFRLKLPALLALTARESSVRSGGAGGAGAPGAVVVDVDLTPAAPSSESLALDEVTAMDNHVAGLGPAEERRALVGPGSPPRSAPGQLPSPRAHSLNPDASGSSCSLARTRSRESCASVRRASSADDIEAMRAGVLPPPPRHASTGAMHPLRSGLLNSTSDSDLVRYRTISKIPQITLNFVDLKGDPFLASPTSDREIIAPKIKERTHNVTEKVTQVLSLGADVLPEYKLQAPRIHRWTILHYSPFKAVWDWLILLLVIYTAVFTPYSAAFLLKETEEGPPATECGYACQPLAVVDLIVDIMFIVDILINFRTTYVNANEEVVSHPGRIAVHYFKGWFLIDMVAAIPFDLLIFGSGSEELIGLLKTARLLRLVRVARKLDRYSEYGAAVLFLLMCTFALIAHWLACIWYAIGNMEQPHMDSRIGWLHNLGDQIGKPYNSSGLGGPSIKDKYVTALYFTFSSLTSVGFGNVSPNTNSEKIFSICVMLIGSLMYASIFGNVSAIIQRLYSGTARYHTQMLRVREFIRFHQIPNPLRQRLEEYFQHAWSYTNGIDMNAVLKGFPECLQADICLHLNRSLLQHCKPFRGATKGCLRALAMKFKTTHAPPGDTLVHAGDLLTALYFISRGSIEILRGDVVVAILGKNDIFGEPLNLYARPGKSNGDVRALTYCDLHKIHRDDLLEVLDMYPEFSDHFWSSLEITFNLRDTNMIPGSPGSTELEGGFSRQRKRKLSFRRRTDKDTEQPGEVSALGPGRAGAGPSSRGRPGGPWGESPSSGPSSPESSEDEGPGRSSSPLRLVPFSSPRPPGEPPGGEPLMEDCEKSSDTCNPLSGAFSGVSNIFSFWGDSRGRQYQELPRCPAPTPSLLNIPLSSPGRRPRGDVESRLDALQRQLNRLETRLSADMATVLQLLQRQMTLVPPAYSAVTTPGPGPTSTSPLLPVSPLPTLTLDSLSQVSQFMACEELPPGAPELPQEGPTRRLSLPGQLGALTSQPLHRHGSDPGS

Compared with `Cc1ccccc1NC(=O)C(NC1CCCCC1)C(C)C` (stereo not drawn), `CCC(Cc1ccccc1)NC(=O)C1CCCCC1` (stereo not drawn) is lower in “hERG current change (%, negative = inhibition) at 10uM” value: 7.39% for the first, 1.82% for the second.

Going from `Cc1noc(C)c1COc1ccccc1C(=O)NCCOc1ccccc1F` to `Cc1ccc(F)c(NC(=O)c2c(-c3ccccc3)noc2C)c1`, the “hERG current change (%, negative = inhibition) at 10uM” value rises from -3.18% to 7.17%.

Compared with `NC(=O)CSc1nnc(NC(=O)c2cccc(S(=O)(=O)N3CCCCC3)c2)s1`, `N#Cc1cccc(NC(=O)Cn2cnc(S(=O)(=O)N3CCCC3)c2)c1` is lower in “hERG current change (%, negative = inhibition) at 10uM” value: 25.3% for the first, 12.7% for the second.

Compared with `Cc1ccccc1CC1(CO)CCCN(Cc2ccccc2Cl)C1` (stereo not drawn), `CCN(CC(=O)Nc1cc(S(=O)(=O)N2CCCCC2)ccc1C)Cc1ccccc1` is higher in “hERG current change (%, negative = inhibition) at 10uM” value: -25.6% for the first, -14.6% for the second.

Compared with `Cc1ccc(-n2nc(C)c3c(C(=O)OCC(=O)N(C)C4CCS(=O)(=O)C4)cc(-c4ccccc4)nc32)cc1` (stereo not drawn), `Cc1cccc(-n2c(O)c(C=NC3CCS(=O)(=O)C3)c3ccccc3c2=O)c1` (stereo not drawn) is lower in “hERG current change (%, negative = inhibition) at 10uM” value: 12.9% for the first, -9.19% for the second.

Going from `CCCn1c(C(C)Nc2nc(-c3ccc(Cl)c([N+](=O)[O-])c3)cs2)nc2ccccc21` (stereo not drawn) to `COc1ccc(-c2csc(Cc3nnc(N4CCOCC4)n3-c3ccccc3)n2)cc1`, the “hERG current change (%, negative = inhibition) at 10uM” value falls from 8.28% to -2.17%.

First: COc1ccc(NC(=O)CSC2=C(C#N)C(c3ccco3)C3=C(CCCC3=O)N2)c(OC)c1 (stereo not drawn)
Second: COc1ccc(N(CC(=O)NCc2ccc(Cl)cc2)S(=O)(=O)c2ccccc2[N+](=O)[O-])c(OC)c1
The “hERG current change (%, negative = inhibition) at 10uM” value of the first is lower: -33.2% for the first, -1.15% for the second.

Going from `CC(C)NC(=O)c1nc2c(nnn2Cc2cccc(Cl)c2)c(=O)[nH]1` to `CSc1nc2c(c(=O)[nH]1)C(c1cccc(Cl)c1)CC(=O)N2` (stereo not drawn), the “hERG current change (%, negative = inhibition) at 10uM” value falls from 15% to -1.08%.

First: O=C(NCc1ccccc1Br)C1CCCO1 (stereo not drawn)
Second: COc1ccccc1CNC(=O)Cn1ccsc1=N.Cl
The “hERG current change (%, negative = inhibition) at 10uM” value of the first is higher: 15.1% for the first, -1.4% for the second.

First: CN=C1SC(CC(=O)Nc2ccc(C(C)=O)cc2)C(=O)N1C (stereo not drawn)
Second: CCOC(=O)c1ccc(NC(=O)Nc2ccn(C)n2)cc1
The “hERG current change (%, negative = inhibition) at 10uM” value of the first is lower: -13.1% for the first, 0.444% for the second.

Going from `CCOc1ccc(C2C(C(=O)OC)=C(C)N=C3SCCC(=O)N32)cc1OCC` (stereo not drawn) to `CCOc1ccc(OCC)c(NC(=O)Cn2cccc2)c1`, the “hERG current change (%, negative = inhibition) at 10uM” value falls from 0.039% to -4.95%.

Compared with `O=C(Cc1cccc2ccccc12)N/N=C/c1ccc(OC(=O)/C=C/c2ccco2)cc1`, `COc1ccc(/C=N/NC(=O)CNS(=O)(=O)c2ccc(C)cc2)cc1` is higher in “hERG current change (%, negative = inhibition) at 10uM” value: 8.25% for the first, 8.76% for the second.

Going from `CCOc1ccc(CN(C)CC(=O)Nc2cc(C)c(C)cc2[N+](=O)[O-])cc1.CN(C)C=O` to `COc1ccc(CC(=O)Nc2nc(C)cs2)cc1`, the “hERG current change (%, negative = inhibition) at 10uM” value falls from 9.36% to 3.2%.

First: CCN1CCN=C1Nc1ccccc1
Second: C/C(=C/C(=O)N1CCc2ccccc21)C(=O)O
The “hERG current change (%, negative = inhibition) at 10uM” value of the first is higher: 8.49% for the first, 5.43% for the second.

Going from `CN(C)C(CNC(=O)CCNC(=O)c1ccccc1Cl)c1ccco1` (stereo not drawn) to `O=C(Nc1ccc(N2CCN(C(=O)c3ccco3)CC2)cc1)c1ccccc1F`, the “hERG current change (%, negative = inhibition) at 10uM” value falls from 5.24% to 4.64%.

Going from `COc1ccc2c(c1)C(c1ccccc1)=NNC(c1ccco1)=N2` to `O=C1CC(c2ccco2)c2ccc3ccccc3c2N1` (stereo not drawn), the “hERG current change (%, negative = inhibition) at 10uM” value rises from -15.7% to -5.31%.

Going from `O=S(=O)(NC1CCCC1)c1ccc(S(=O)(=O)N2CCN(c3ccccc3)CC2)cc1` to `CS(=O)(=O)c1ccccc1-c1nnc(NC(=O)c2ccc(S(=O)(=O)N3CCCC3)cc2)o1`, the “hERG current change (%, negative = inhibition) at 10uM” value rises from -5.74% to 12.8%.

First: COc1cccc(NC(=O)C2CC2)c1
Second: COc1cccc(NS(=O)(=O)c2cc3c(cc2C)N(C)CCO3)c1
The “hERG current change (%, negative = inhibition) at 10uM” value of the first is lower: 2.97% for the first, 16.4% for the second.

First: COc1cc(N/C(=N/S(=O)(=O)c2ccccc2)c2ccccc2)ncn1
Second: O=C(Cc1ccccc1F)Nc1ccccc1-c1ccccc1
The “hERG current change (%, negative = inhibition) at 10uM” value of the first is lower: 6.32% for the first, 27.6% for the second.

Compared with `O=C(CNC(=O)c1ccc(Br)o1)Nc1ncccc1O`, `CN(CC(=O)NCc1ccccn1)S(=O)(=O)c1ccc(F)cc1` is lower in “hERG current change (%, negative = inhibition) at 10uM” value: 6.38% for the first, -9.45% for the second.

Going from `CCC1CCC(N2CCN(c3cccc(OC)c3)CC2)CC1` (stereo not drawn) to `COc1ccc(Cn2nnnc2C(c2ccccn2)N2CCN(c3cc(Cl)ccc3C)CC2)cc1` (stereo not drawn), the “hERG current change (%, negative = inhibition) at 10uM” value rises from -33.7% to -9.87%.

Going from `CCn1c(=O)c2ccccc2n(CC(=O)N2CCCc3ccccc32)c1=O` to `Cc1ccc(N(CC(=O)N2CCc3ccccc32)C2=NC(=O)CS2)cc1`, the “hERG current change (%, negative = inhibition) at 10uM” value falls from 5.99% to -26.7%.

Going from `O=C(CSc1cccc2cccc(Cl)c12)NC1=NCCS1` to `Nc1nc(SCC(=O)Nc2ccc(Cl)cc2C(F)(F)F)n[nH]1`, the “hERG current change (%, negative = inhibition) at 10uM” value rises from 8.28% to 22%.

First: CCN1C(=O)C(NC(C)=O)c2cc(OC)ccc21 (stereo not drawn)
Second: CCCCNS(=O)(=O)c1ccc(OC)cc1
The “hERG current change (%, negative = inhibition) at 10uM” value of the first is lower: 7.82% for the first, 13% for the second.

Going from `CC(=O)C1=C(O)C(=O)OC1c1ccc(Cl)cc1` (stereo not drawn) to `CC(Oc1ccc(Cl)cc1)c1ccnn1S(=O)(=O)c1ccc(Cl)cc1` (stereo not drawn), the “hERG current change (%, negative = inhibition) at 10uM” value falls from 7.92% to 2.97%.

Compared with `CCOC(=O)c1sc(N(C)C)nc1-c1ccccc1`, `CCOC(=O)C1=NN(c2ccccc2)C2(S1)SC(C(C)=O)=C(C)N2c1ccccc1` (stereo not drawn) is higher in “hERG current change (%, negative = inhibition) at 10uM” value: 3.34% for the first, 8.42% for the second.

Going from `CCC(=O)Nc1ccc(N2CCOCC2)c(S(=O)(=O)Nc2ccc(OC)cc2)c1` to `COc1ccc(CN(Cc2cc3cccc(C)c3n3nnnc23)C(=O)N2CCOCC2)cc1`, the “hERG current change (%, negative = inhibition) at 10uM” value falls from 3.09% to -1.26%.

Going from `CCN1CCN(CCc2nc3cc([N+](=O)[O-])ccc3n2C)CC1` to `CCn1c(CCCOc2ccc(Cl)cc2Cl)n[nH]c1=S`, the “hERG current change (%, negative = inhibition) at 10uM” value rises from -16.9% to 9.95%.

Compared with `CCOC(=O)C1CCN(C(c2cccs2)c2sc3nc(C)nn3c2O)CC1` (stereo not drawn), `CCOC(=O)C1CCN(S(=O)(=O)c2nc3nc(C)cc(C)n3n2)CC1` is higher in “hERG current change (%, negative = inhibition) at 10uM” value: -12.6% for the first, -12.4% for the second.

Compared with `CC(/C=C/c1ccc2c(c1)OCO2)=N\NC(=O)c1ccccc1`, `Cc1ccc(C)c(N=Cc2cc3c(cc2[N+](=O)[O-])OCO3)c1` is lower in “hERG current change (%, negative = inhibition) at 10uM” value: 10.3% for the first, 9.15% for the second.

Going from `CC(CC(=O)NCCc1ccc(S(N)(=O)=O)cc1)c1ccccc1` (stereo not drawn) to `CCc1nnc(NS(=O)(=O)c2ccc(NCc3ccccc3O)cc2)s1`, the “hERG current change (%, negative = inhibition) at 10uM” value rises from 19.3% to 31.3%.

Compared with `COc1ccc([C@H]2CC(=O)C=C(c3cc(C)ccc3F)C2)cc1`, `Cc1ccc(C)c(Oc2coc3cc(OC(=O)c4cccs4)ccc3c2=O)c1` is higher in “hERG current change (%, negative = inhibition) at 10uM” value: -3.08% for the first, 0.666% for the second.

Going from `CP(=O)(Nc1cc(Cl)ccc1Cl)c1nc2c(s1)CCCC2` (stereo not drawn) to `NC(=O)c1c(NC(=O)c2cccnc2)sc2c1CCCC2`, the “hERG current change (%, negative = inhibition) at 10uM” value rises from -23.3% to 17.5%.

Compared with `CC1(C)CC(NC(=O)C23CCC(C)(/C(=N/O)C2)C3(C)C)CC(C)(C)N1` (stereo not drawn), `CC12CCC(=O)N1C(C(=O)Nc1nc(-c3cc(F)ccc3F)cs1)CS2` (stereo not drawn) is higher in “hERG current change (%, negative = inhibition) at 10uM” value: -3.78% for the first, 0.403% for the second.

Compared with `c1cc(-c2nnc(-c3ccncc3)o2)ccn1`, `Cc1ccc2nc(-c3cccnc3)oc2c1` is lower in “hERG current change (%, negative = inhibition) at 10uM” value: 7.92% for the first, 5.22% for the second.

First: O=C(CNS(=O)(=O)/C=C/c1ccccc1)OCC(=O)N1CCC(Cc2ccccc2)CC1
Second: O=C(Cn1c(C(=O)N2CCc3ccccc3C2)cc2sccc21)c1ccccc1
The “hERG current change (%, negative = inhibition) at 10uM” value of the first is lower: -14.4% for the first, 4.01% for the second.

Going from `CCn1c(=O)c2c3c(sc2n2c(SCc4ccc(F)cc4)nnc12)CCCC3` to `COc1ccc(-c2nsc(SCC(=O)NCC3CCCO3)n2)cc1` (stereo not drawn), the “hERG current change (%, negative = inhibition) at 10uM” value rises from -3.54% to 11.9%.

Going from `COc1ccccc1N1CCN(C(=O)c2cc3c(C)nc4ccccc4c3o2)CC1` to `Cc1ccc(C)c(S(=O)(=O)C(C#N)c2nc3ccccc3nc2N2CCCC2)c1` (stereo not drawn), the “hERG current change (%, negative = inhibition) at 10uM” value rises from -33% to -4.16%.

Compared with `Cc1nc(Cl)c(C(=O)NCc2ccccc2)c(C)c1[N+](=O)[O-]`, `Cc1c(C(=O)c2ccccc2)c(=O)n(C)c(=O)n1C` is higher in “hERG current change (%, negative = inhibition) at 10uM” value: 8.86% for the first, 12.2% for the second.

Compared with `CSc1ccc2nnc(-c3cccc(F)c3)n2n1`, `CC1=NN(Cc2ccccc2)C(=O)/C1=C/c1ccc(N(C)C)cc1` is higher in “hERG current change (%, negative = inhibition) at 10uM” value: -27.9% for the first, 5.11% for the second.

Going from `CC(C)OCC(O)CSc1ccccn1` (stereo not drawn) to `COc1ccc(C(CCNC(C)c2ccccc2)C(C)C)cc1` (stereo not drawn), the “hERG current change (%, negative = inhibition) at 10uM” value rises from -10.2% to -4.48%.

Compared with `Cc1ccc(C(=O)c2coc3ccc(OCC(=O)O)cc23)cc1`, `CCOC(=O)c1ccc(Oc2nc(NC)nc(OC)n2)cc1` is higher in “hERG current change (%, negative = inhibition) at 10uM” value: 2.16% for the first, 2.59% for the second.

Going from `CCCCc1cc(=O)oc2cc(OCc3cc(OC)c(OC)c(OC)c3)c(Cl)cc12` to `O=S(=O)(c1ccc(SCc2ccccc2F)nc1)N1CCCC1`, the “hERG current change (%, negative = inhibition) at 10uM” value falls from 23.2% to -12.6%.

Compared with `CC(CN(C)C)CN1c2ccccc2Sc2ccccc21.O=C(O)C(O)C(O)C(=O)O` (stereo not drawn), `Cc1nn(C(C)C(=O)NC2C(=O)N3C(C(=O)O)=C(CSc4nnnn4C)CSC23)cc1Cl` (stereo not drawn) is higher in “hERG current change (%, negative = inhibition) at 10uM” value: -44.6% for the first, 13.6% for the second.

Going from `O=C(NCc1ccncc1)C1CCN(S(=O)(=O)c2ccc(F)cc2)CC1` to `CCO/C(C)=C1/SC(=S)NC1=O`, the “hERG current change (%, negative = inhibition) at 10uM” value rises from -9.11% to 3.01%.

From paper PMC4336329 (PLoS ONE, 2015)
